{"source": "paper PMC12679550", "about": "(ACS Chemical Neuroscience, 2025)", "key": {"human α2CRs [1]": {"target": "T1, human α2CRs (Homo sapiens, UniProt P18825)", "T1 sequence (P18825 1-462)": "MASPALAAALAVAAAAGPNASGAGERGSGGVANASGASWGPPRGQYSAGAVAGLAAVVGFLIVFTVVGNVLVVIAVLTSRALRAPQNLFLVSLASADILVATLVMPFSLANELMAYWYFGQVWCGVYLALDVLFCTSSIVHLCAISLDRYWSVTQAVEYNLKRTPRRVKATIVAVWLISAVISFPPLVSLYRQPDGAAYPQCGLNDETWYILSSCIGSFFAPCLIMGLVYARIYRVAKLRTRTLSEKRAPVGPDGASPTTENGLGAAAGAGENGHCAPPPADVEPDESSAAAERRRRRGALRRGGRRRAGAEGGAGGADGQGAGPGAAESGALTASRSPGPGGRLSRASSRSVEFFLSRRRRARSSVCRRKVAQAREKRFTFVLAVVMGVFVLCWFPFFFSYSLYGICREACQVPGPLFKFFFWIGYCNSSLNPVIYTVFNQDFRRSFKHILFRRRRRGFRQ", "conditions": "for Activation of Gαi/o subtypes coupled to α2CRs: 10 μM screen, 5 min exposure; for Activation of α2CR-Gαi1 after 30 min exposure: 30 min before adding coelenterazine, up to 10 μM, Figure S3"}, "human α2CRs [2]": {"target": "T1, human α2CRs", "test": "cell-based", "conditions": "HEK293, read-out: Emax relative to epinephrine at α2C-Gαi2"}}}
{"compound": "Clc1cccc(Cl)c1N=C1NCCN1", "note": "[clonidine]", "values": [{"measurement": "Activation of Gαi/o subtypes coupled to α2CRs", "setting": "human α2CRs [1]", "value": "significantly activated each of the Gαi/o subtypes"}, {"measurement": "Activation of α2CR-Gαi1 after 30 min exposure", "setting": "human α2CRs [1]", "value": "agonist effects"}, {"measurement": "Emax", "setting": "human α2CRs [2]", "value": "23 to 30", "unit": "%"}]}
{"compound": "mitragynine", "values": [{"measurement": "Activation of Gαi/o subtypes coupled to α2CRs", "setting": "human α2CRs [1]", "value": "no significant activity"}, {"measurement": "Activation of α2CR-Gαi1 after 30 min exposure", "setting": "human α2CRs [1]", "value": "did not activate α2CR–Gαi1"}]}
